Test results as given in article doi:10.1101/2023.03.27.534416 (bioRxiv, 2023).

Biological target: the molecule itself
Assay: SEC

B1: DYNLL[…]A (natural protein)
chain: not shown
- stoichiometry N: 2
